Test results taken from article PMC11938383, “Antibodies targeting ADAM17 reverse neurite outgrowth inhibition by myelin-associated inhibitors” (Life Science Alliance, 2025).

Target: T1, neuron-myelin 5-mer signaling complex (NgR1, Lingo-1-Fc, p75, MAG, GT1b-Na) (mouse | human, UniProt Q9D1T0 35-516; Q9BZR6 30-430; P08138 31-210; P20916 22-504)
T1 construct: Lingo-1, mouse, residues 35-516; NgR1, human, residues 30-430; p75, human, residues 31-210 (the version used in the pull-down assays, by which the complex was made); MAG, human, residues 22-504; The fifth component is the ganglioside GT1b (no protein); also called 5-mer complex; 5-mer neuron-myelin complex; source: for ELISA and BLI eluted with 100 mM glycine-HCl pH 3.5 and brought to pH 7; not …
Experiment: BLI; Blitz (Forte Bio); 5-mer complex (via Lingo-Fc) or p75-Fc loaded at 50 μg/ml on protein A sensors; ADAM17 ECD (E406A) or D+C in solution; HBS (20 mM Hepes, 150 mM NaCl pH 7.4); apparent KD
Details: both partners purified

T1 sequence (Q9D1T0 35-516, chain 1 of 4): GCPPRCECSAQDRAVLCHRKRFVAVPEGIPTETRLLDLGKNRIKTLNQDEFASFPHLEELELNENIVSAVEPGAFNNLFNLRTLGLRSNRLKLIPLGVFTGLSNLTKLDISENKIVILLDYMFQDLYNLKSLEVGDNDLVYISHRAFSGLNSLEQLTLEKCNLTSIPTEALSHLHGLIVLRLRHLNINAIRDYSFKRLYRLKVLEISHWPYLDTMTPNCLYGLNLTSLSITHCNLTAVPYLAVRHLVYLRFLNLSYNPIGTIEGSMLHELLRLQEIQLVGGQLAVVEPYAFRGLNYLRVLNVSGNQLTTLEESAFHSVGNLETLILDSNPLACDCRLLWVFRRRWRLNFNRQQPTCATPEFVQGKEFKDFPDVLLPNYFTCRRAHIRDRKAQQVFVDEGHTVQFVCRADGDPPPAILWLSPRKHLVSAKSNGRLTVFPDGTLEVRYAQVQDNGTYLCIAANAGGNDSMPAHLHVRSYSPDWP
T1 sequence (Q9BZR6 30-430, chain 2 of 4, further chain): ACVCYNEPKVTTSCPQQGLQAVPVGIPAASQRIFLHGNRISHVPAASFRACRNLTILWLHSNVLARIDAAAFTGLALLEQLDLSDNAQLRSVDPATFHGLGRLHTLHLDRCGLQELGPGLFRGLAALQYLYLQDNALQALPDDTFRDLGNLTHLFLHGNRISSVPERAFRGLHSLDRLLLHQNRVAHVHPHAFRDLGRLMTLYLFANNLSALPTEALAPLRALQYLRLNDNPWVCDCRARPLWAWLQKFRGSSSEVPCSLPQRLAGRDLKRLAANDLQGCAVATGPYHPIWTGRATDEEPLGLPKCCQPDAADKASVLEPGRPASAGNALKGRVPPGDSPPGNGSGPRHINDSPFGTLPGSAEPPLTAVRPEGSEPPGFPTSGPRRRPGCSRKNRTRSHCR
T1 sequence (P08138 31-210, chain 3 of 4, further chain): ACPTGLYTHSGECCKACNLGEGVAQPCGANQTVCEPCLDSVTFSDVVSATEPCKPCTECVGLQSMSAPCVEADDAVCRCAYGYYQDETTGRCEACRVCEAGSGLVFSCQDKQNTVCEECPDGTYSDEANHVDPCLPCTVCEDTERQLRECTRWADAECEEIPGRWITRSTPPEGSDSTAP
T1 sequence (P20916 22-504, chain 4 of 4, further chain): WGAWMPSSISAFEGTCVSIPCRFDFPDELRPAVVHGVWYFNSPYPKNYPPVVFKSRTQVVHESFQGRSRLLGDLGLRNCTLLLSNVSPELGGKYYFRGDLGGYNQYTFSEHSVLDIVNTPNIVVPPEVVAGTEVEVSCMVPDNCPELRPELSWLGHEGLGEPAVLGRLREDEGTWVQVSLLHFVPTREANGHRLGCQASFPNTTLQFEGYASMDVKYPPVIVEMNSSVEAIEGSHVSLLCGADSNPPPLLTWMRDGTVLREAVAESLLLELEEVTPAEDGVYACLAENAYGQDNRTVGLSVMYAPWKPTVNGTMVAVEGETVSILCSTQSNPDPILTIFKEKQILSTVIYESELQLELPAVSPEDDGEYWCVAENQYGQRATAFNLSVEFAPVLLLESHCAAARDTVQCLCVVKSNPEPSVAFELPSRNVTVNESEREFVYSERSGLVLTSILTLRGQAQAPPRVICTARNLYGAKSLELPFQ

B1: ADAM17 ectodomain (ECD), […], active-site mutant E406A (domain or fragment)
chain: not shown
notes: ADAM17, human; cloned as 20-650; the prodomain was cleaved off and the mature polypeptide consisted of MP, D and C domains ([…]); Removable Fc tag; surmise: cut off, since this form served as prey on protein A beads and as analyte on protein A sensors, and the Fc-tagged form is named apart; also called ADAM17 ECD; ADAM17 ECD (E406A); source: baculovirus-infected Hi-5 cells, purified (protein A …)
Kd: ~500 nM
